According to PMC8898372:
These are yes or no findings as the source states them, for the method shown. In cells and extracts the contact can be indirect. Some entries that bind do so weakly or less than the wild type.

The chains behind the UniProt entries cited, without tags or fusion partners. Where a name states a change or a piece, a line headed by the entry shows the natural chain unless it says otherwise.
UniProt A6NGE4: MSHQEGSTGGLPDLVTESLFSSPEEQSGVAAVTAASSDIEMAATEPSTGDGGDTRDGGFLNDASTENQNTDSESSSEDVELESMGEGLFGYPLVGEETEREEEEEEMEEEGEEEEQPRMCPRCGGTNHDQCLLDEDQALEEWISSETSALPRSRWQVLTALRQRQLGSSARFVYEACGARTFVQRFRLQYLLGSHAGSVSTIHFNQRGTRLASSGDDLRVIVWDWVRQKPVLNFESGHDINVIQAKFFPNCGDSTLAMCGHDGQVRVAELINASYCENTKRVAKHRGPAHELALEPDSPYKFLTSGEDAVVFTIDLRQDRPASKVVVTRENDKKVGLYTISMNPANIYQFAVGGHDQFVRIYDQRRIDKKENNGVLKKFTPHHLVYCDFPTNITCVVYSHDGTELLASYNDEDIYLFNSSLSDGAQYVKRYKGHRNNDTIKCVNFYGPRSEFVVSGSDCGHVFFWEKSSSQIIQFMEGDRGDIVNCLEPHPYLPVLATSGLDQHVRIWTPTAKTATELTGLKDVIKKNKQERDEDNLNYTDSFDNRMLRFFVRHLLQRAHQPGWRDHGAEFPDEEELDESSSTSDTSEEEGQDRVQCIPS
UniProt Q99728: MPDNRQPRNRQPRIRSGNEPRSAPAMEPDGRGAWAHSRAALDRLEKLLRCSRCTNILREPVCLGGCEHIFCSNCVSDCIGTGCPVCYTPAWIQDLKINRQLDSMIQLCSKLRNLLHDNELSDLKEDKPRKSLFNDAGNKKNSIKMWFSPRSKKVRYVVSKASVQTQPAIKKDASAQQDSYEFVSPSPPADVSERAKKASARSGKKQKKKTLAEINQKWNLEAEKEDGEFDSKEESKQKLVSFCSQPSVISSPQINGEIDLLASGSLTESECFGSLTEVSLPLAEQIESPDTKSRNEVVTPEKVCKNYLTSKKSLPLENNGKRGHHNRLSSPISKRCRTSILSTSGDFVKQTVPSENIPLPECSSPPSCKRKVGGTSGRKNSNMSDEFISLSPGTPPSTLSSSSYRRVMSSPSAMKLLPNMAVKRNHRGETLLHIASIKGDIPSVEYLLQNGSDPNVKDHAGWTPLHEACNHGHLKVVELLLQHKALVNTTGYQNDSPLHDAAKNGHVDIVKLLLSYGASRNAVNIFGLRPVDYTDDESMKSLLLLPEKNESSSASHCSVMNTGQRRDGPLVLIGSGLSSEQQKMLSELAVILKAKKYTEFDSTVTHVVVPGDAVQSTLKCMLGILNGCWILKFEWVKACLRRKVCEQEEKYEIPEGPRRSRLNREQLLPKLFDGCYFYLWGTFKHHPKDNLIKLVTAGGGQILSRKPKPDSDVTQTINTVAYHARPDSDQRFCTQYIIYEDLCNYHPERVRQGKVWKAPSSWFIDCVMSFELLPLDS
UniProt P38398: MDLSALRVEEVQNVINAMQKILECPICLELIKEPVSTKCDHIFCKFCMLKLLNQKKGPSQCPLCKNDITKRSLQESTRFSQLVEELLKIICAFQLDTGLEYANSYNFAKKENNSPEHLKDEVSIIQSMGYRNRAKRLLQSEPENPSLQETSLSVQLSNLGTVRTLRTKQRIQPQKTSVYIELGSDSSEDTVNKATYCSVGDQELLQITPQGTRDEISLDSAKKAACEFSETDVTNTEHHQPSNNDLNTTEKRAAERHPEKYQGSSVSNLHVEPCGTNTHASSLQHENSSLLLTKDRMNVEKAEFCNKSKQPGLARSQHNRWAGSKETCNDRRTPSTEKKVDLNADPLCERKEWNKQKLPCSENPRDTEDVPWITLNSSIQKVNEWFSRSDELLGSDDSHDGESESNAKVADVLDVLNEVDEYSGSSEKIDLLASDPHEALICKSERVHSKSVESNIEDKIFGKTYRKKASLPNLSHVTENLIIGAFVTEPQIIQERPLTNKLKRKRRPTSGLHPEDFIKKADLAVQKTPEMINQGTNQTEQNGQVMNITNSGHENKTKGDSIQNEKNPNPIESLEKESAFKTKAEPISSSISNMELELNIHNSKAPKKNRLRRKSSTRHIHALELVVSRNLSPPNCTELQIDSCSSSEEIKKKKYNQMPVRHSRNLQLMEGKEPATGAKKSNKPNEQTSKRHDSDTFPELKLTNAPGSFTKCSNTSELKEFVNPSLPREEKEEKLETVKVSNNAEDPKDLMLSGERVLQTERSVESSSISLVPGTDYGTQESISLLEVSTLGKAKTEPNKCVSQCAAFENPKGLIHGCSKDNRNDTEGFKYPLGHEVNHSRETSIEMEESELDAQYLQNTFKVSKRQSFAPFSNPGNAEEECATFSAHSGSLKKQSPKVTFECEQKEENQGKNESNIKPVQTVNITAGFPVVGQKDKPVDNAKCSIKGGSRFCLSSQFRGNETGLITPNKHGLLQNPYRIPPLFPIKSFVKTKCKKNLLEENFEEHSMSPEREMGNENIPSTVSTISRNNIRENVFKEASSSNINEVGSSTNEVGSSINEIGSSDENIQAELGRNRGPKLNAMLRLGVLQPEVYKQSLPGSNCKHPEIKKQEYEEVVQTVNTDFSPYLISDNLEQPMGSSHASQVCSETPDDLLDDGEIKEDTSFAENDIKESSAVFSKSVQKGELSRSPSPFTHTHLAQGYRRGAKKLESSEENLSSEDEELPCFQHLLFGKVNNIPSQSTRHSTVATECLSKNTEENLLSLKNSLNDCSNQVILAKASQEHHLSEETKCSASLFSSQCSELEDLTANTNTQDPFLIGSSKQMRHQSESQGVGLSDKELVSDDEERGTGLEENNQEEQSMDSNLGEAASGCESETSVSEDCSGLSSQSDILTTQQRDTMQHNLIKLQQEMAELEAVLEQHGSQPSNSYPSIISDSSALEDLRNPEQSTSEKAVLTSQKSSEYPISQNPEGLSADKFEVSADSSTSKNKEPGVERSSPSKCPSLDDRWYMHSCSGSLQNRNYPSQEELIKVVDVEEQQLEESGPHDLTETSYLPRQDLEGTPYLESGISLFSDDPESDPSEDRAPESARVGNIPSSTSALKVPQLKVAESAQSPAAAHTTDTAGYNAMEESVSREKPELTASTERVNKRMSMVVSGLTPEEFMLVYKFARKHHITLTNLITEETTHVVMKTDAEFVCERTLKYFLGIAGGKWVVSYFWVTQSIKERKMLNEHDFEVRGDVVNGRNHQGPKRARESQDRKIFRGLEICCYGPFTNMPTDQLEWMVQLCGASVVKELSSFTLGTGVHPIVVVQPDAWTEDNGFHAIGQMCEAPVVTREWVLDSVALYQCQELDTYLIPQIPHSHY
UniProt Q13619: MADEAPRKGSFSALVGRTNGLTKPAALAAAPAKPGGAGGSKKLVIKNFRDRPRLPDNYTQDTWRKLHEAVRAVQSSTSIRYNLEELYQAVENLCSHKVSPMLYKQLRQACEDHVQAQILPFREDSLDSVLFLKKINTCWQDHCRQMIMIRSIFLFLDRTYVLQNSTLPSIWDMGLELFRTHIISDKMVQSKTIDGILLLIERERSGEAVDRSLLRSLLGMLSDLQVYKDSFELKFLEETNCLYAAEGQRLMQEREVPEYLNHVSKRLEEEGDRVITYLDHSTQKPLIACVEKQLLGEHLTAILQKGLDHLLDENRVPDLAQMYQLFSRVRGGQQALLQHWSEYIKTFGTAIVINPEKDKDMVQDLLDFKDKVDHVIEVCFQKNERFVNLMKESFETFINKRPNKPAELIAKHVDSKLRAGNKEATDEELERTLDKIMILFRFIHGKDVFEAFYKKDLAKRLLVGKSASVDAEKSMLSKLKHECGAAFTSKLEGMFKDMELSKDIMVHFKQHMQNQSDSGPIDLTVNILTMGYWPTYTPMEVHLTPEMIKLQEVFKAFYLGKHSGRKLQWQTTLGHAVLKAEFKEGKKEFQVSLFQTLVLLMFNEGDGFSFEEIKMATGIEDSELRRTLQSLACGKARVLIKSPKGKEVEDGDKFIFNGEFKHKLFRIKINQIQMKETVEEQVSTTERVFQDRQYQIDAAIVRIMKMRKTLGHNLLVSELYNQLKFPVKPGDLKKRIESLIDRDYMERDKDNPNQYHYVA
UniProt Q16531: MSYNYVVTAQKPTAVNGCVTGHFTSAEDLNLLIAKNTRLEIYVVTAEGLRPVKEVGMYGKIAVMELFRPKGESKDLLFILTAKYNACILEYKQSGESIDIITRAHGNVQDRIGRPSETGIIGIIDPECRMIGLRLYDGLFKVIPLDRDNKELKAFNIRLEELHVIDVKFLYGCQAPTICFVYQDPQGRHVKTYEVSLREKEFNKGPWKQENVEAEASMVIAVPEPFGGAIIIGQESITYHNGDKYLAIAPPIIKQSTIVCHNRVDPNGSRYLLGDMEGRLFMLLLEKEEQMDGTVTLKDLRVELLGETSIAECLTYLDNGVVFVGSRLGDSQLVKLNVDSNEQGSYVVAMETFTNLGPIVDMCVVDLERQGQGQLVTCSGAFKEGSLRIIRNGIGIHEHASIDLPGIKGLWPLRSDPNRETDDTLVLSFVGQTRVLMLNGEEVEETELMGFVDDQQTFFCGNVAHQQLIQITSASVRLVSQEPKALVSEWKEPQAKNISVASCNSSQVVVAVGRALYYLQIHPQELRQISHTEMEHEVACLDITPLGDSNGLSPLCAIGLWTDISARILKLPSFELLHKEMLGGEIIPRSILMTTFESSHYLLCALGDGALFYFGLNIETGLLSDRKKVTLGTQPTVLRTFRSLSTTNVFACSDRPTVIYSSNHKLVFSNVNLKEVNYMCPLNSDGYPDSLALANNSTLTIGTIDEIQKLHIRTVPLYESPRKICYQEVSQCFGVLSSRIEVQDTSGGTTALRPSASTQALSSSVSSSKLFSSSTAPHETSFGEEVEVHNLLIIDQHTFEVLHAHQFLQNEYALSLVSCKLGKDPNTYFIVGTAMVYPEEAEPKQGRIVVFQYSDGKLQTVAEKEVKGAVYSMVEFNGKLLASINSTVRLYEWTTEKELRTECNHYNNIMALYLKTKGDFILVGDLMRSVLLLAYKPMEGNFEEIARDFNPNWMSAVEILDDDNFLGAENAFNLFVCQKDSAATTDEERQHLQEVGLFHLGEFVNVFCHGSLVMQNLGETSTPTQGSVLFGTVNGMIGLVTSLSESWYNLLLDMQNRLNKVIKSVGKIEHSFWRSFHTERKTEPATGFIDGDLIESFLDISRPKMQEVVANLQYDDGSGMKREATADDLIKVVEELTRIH
UniProt Q13620: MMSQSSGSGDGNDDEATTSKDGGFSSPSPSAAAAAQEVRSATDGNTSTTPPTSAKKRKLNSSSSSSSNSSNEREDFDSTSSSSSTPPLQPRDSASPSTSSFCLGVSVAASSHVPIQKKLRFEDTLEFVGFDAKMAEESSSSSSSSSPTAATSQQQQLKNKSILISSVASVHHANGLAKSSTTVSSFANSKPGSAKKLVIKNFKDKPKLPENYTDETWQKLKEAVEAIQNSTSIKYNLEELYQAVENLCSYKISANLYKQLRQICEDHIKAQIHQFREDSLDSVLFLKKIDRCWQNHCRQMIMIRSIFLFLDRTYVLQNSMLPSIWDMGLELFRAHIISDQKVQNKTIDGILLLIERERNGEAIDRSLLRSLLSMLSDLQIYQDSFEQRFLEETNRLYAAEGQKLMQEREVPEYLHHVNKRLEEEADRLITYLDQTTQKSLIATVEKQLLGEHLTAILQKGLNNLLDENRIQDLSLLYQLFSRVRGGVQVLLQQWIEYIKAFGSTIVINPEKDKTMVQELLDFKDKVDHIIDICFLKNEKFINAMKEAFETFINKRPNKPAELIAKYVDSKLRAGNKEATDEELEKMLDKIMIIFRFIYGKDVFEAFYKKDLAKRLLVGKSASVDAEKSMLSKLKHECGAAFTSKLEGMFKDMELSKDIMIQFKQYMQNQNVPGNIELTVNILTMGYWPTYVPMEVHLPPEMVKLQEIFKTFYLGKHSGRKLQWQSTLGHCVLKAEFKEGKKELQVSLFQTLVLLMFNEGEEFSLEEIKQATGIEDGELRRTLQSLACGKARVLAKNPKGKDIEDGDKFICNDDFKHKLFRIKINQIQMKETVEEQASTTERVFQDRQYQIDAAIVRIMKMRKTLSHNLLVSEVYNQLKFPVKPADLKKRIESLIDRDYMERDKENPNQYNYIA

Experiments:
[1] = biological target: DCAF8L1 mutant (R317H, R365H, MT) (human) (UniProt A6NGE4); test: co-IP; DCAF8L1 wild type (WT) and mutant (MT) pulled down and analysed by immunoblot; cells and resin not stated
[2] = biological target: Flag-HA-DCAF8L1 (wild type) (human) (UniProt A6NGE4); test: co-IP; lysates of 293T cells expressing control or FH-D8L1, anti-FLAG M2 agarose; lysis in NETN-400, diluted to 150 mM NaCl, washed with NETN-150; immunoblot
[3] = biological target: DCAF8L1 (endogenous, HCC1954) (human (endogenous in HCC1954)) (UniProt A6NGE4); test: co-IP; HCC1954 lysate, IP with control IgG or antibody against DCAF8L1 (D8L1-519) on Protein G agarose; 150 mM NaCl; immunoblot
[4] = biological target: BARD1 (endogenous, HCC1954) (human (endogenous in HCC1954)) (UniProt Q99728); test: co-IP; HCC1954 lysate, IP with control IgG or antibody against BARD1 or BRCA1 on Protein G agarose; 150 mM NaCl; immunoblot for DCAF8L1
[5] = biological target: BRCA1 (endogenous, HCC1954) (human (endogenous in HCC1954)) (UniProt P38398); test: as above

| Substance | binding [2] | binding [3] | also measured |
| --- | --- | --- | --- |
| CUL4A (endogenous, 293T) (from UniProt Q13619 1-759) | binds |  | binding [1]: no binding |
| CUL4A (endogenous, HCC1954) (from UniProt Q13619 1-759) |  | binds |  |
| DCAF8L1 (endogenous, HCC1954) (from UniProt A6NGE4 1-600) |  |  | binding [4]: binds; binding [5]: binds |
| DDB1 (endogenous, HCC1954) (from UniProt Q16531 1-1140) |  | binds |  |

More lines, main results first:

| binding [2] | binding [3] | Substance | also measured |
| --- | --- | --- | --- |
| binds |  | CUL4B (endogenous, 293T) (from UniProt Q13620 1-913) |  |
|  | binds | CUL4B (endogenous, HCC1954) (from UniProt Q13620 1-913) |  |
| binds |  | DDB1 (endogenous, 293T) (from UniProt Q16531 1-1140) | binding [1]: no binding |
